Publication PMC4336329 (PLoS ONE, 2015)
About 2,200 (0.71%) of roughly 310,000 compounds showed an effect of 50% or more. Effects have a minus sign here. Some of the results follow.

The molecules below were run against human ether-à-go-go-related gene (hERG) potassium channel (human, UniProt Q12809) (assay: primary screen, population patch clamp on CHO cells stably expressing hERG).
Method: Briefly, Chinese hamster ovary (CHO) cells stably expressing the hERG channel were dislodged from tissue culture flasks and dispensed into PPC plates. […] During the recording, background leak currents were estimated by a 100 ms step to -80 mV from an initial holding potential of -70 mV and subtracted from the subsequent current measurement. The campaign was conducted in two phases using slight differences in recording protocol. In the first phase, the initial voltage pulse used a 100 ms step to -30 mV from a holding potential of -70 mV, a 2 s conditioning step to +25 mV, and a 2 s test step to -30 mV. During the second phase of the screen, the potential during the conditioning step was raised to +45 mV. In both phases of the campaign, a secondary voltage pulse was applied using the same parameters as the second phase initial pulse. The initial and secondary pulses were applied in the absence of compound, and upon application of 1 μM and 10 μM test concentrations. Small molecule effects on hERG current density were quantified by […].

Sequence of human ether-à-go-go-related gene (hERG) potassium channel (Q12809 whole entry, looked up): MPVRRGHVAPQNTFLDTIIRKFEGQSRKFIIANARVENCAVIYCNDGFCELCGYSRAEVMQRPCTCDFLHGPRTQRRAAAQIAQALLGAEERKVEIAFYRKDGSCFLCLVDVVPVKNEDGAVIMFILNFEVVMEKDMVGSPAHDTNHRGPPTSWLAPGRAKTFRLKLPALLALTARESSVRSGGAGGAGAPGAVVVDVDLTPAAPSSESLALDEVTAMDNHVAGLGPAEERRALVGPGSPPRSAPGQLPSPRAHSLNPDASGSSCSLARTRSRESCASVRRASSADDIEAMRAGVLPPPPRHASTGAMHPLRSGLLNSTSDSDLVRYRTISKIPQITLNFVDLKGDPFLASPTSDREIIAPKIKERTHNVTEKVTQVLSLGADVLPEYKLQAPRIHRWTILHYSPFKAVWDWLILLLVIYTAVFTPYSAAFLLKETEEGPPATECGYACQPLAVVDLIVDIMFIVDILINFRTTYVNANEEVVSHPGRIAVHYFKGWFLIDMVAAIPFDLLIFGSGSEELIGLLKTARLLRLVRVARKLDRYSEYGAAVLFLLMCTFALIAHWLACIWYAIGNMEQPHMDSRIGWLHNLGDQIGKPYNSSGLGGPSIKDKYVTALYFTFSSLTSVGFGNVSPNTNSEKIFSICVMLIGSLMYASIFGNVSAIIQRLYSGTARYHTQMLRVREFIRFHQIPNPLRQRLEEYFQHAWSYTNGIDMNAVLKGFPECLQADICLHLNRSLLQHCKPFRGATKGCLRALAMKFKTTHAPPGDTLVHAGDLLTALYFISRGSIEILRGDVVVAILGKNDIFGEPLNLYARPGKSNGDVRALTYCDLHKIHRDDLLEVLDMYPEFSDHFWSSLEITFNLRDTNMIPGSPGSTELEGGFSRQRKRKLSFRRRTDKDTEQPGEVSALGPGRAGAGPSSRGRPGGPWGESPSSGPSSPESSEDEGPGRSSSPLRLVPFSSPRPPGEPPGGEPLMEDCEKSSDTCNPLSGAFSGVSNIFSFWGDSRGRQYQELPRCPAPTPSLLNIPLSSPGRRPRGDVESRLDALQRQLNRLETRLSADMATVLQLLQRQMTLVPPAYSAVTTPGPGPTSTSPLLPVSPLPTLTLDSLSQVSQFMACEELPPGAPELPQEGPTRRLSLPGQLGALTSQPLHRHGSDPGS

Structure (SMILES) | hERG current change (%, negative = inhibition) at 1uM [%]
Cc1ccc(C(=O)O)cc1NC(=S)NC(=O)c1ccc(-c2ccccc2)cc1 | 14.8
COC(=O)/C(=N/Nc1ccccc1C)Sc1nnc(C(O)c2ccccc2)n1-c1ccccc1 (stereo not shown) | 11.3
C[C@H](NC(=O)c1nc[nH]c1C(=O)NCc1ccc(CNC(=O)OC(C)(C)C)cc1)C(=O)OC(C)(C)C | 11
CCOC(=O)COn1c(=O)c(-c2ccco2)[n+]([O-])c2ccccc21 | 3.36
Cc1cc(CNC(=O)COc2ccc(F)cc2Cl)cc(C)c1O | 10.7
COc1ccc(-c2c(C(F)(F)F)nn(C)c2NC(C)=O)cc1 | 4.59
CC(C)c1ccc(C(C(=O)NC2CCCC2)N(C(=O)c2csnn2)C2CC2)cc1 (stereo not shown) | 8.62
CCC(=O)c1ccc(OC(=O)/C=C/c2cc(OC)c(OC)c(OC)c2)cc1 | 12.4
O=[N+]([O-])c1ccc(N2CCN(S(=O)(=O)c3ccc(Cl)cc3)CC2)cc1NCC1CCCO1 (stereo not shown) | 2.52
COc1ccc(Cn2cccc(NC(=O)Nc3cccc(OC)c3)c2=O)cc1 | 8.91
O=C(Nc1ccccc1N1CCN(C(=O)c2ccccc2)CC1)c1cc2ccccc2o1 | 10.2
CC1CCCC(NC(=O)COC(=O)CCC2CCCC2)C1C (stereo not shown) | 1.62
COc1ccc(/C=C/C(=O)c2ccccc2)c(OC)c1 | 3.3
COCCCNc1nc(=S)[nH]c2cc(OC)c(OC)cc12 | 2.14
Cn1c(SCC(=O)CC(=O)Nc2ccccc2)nnc1-c1ccc(O)cc1 | 1.98
O=C(CCl)Nc1ccc(S(=O)(=O)Nc2nccs2)cc1 | 15.7
Cc1nc2ccccc2n1CC(O)c1ccccc1 (stereo not shown) | 14.5
CCOCCn1c(C(C)C)nc2ccccc21 | -3.06
COc1ccccc1OCC(=O)Nc1c2c(nn1-c1ccccc1)CS(=O)(=O)C2 | -4.85
COc1ccc(C)cc1C1=Nc2ccccc2C1(C)C | 13.4
Cc1ccc(-n2nc3c(=O)n(C(C)C(=O)NCCC4=CCCCC4)nc(C)c3c2C)cc1 (stereo not shown) | 4.35
O=C(CSc1nnc(-c2ccc(F)cc2)o1)NC1CCCCC1 | 13.2

Structure (SMILES) | hERG current change (%, negative = inhibition) at 1uM [%]
CC(=O)N1N=C(c2ccc(C)c([N+](=O)[O-])c2)OC1(C)C | 11.2
O=c1c2c([nH]n1-c1ccccc1)CCSC2 | 18
O=C(NNC(=O)c1cccs1)c1ccc(S(=O)(=O)N2CCCCC2)cc1 | -2
CCN(CC)C(=O)c1sc2nc(-c3cccs3)cc(-c3ccc(Cl)cc3)c2c1N | 17.2
CC(=O)N1CCN(CC(=O)Nc2c(Cl)cc(Cl)cc2Cl)CC1 | -26.6
O=[N+]([O-])c1ccccc1-c1nc(-c2ccc(Br)o2)no1 | 14.4
O=[N+]([O-])c1cccc(S(=O)(=O)[N-]c2nc3ccccc3nc2-n2cc[n+](Cc3ccccc3)c2)c1 | 2.29
O=C(Cn1nnc(-c2cccs2)n1)NCc1ccco1 | 13.2
O=C(Nc1cc(-c2nc3ncccc3o2)ccc1Cl)c1ccc2c(c1)OCO2 | 12.7
CC(=O)N1CCN(Cc2nc3cc(NC(=O)c4cccs4)ccc3n2C)CC1 | 12
Cc1ccc(C)n1-c1ccc(N2CCOCC2)c([N+](=O)[O-])c1 | 12.8
COc1ccc(N(CC(=O)NCc2ccccc2OC)S(=O)(=O)c2ccccc2)cc1 | 13
COC(CNc1ncnc2c1cnn2C)OC | 13.4
C#CCSc1nnc(-c2cccc3ccccc23)o1 | 5.47
C/C(CC(=O)Nc1ccc(Cl)cc1)=N\NC(=O)C(=O)NCCO | 10.7
CN(C)C(CNC(=O)c1cccc(C#N)c1)c1ccco1 (stereo not shown) | -0.423
COc1ccc(OC)c(NC(=O)CNC(=O)Cn2ccc3ccccc3c2=O)c1 | 15.5
O=C(CN1C(=O)/C(=C\c2ccccc2Cl)Sc2ccccc21)NCCCN1CCOCC1 | 8.24
CCCNC1CCS(=O)(=O)C1.Cl (stereo not shown) | 5.66
COC(=O)COc1ccc(C)cc1-n1nc2ccccc2n1 | 5.84
CC(C)c1ccccc1NC(=O)C1CC(=O)N(C2CCCC2)C1 (stereo not shown) | 12.9
CCC1(CC)NC(=O)N(CC(=O)OCC(=O)NC(=O)c2ccccc2OC)C1=O | 14.7

Structure (SMILES) | hERG current change (%, negative = inhibition) at 1uM [%]
CC(=O)n1cc([C@H]2C=C(C(=O)Nc3ccccc3)O[C@@H](OCCCCO)C2)c2ccccc21 | 1.76
Cc1ccc(CN2CCN(Cc3cn(C(C)C)c4ccccc34)CC2CCO)o1 (stereo not shown) | -5.27
CCOc1ccc(NC(=S)NCC(c2cccnc2)N2CCOCC2)cc1 (stereo not shown) | 9.05
Cc1ccc(-n2c(SCC(=O)N3CCCC3)nc3c(c2=O)SCC3)cc1 | 14.1
O=C1CNC(=S)N1CCc1ccc(Cl)cc1 | 12.3
Clc1ccc2[nH]c3c(NCCN4CCOCC4)ncnc3c2c1 | -2.76
Cn1c2c(c(=O)n(C)c1=O)C(c1ccc(F)cc1)C(C#N)=C(N)O2 (stereo not shown) | 13.3
O=C(O)c1[nH]c2ccccc2c1NS(=O)(=O)Cc1ccccc1 | 6.53
C#CCn1cc[n+](CC(=O)N(C)C)c1.[Br-] | 11.8
COc1ccc(OC)c(-c2cc(C(=O)Nc3cc(C)n(Cc4ccc(Cl)cc4)n3)no2)c1 | 1.84
CCOc1ccc(Oc2c(/C=N/NC(=O)COc3ccccc3OC)c(C)nn2-c2ccccc2)cc1 | 15.8
S=c1nccc(-c2cccs2)[nH]1 | 6.42
O=C(CSc1nnc2c(Cl)cc(Cl)cn12)NC1CCS(=O)(=O)C1 (stereo not shown) | -4.31
COC(=O)C1C(=O)C2=C(CC1C)NC(C)=C(C(=O)OC(C)C)C2c1ccc(OC)c(O)c1 (stereo not shown) | 11
COC(=O)c1cccc(NC(=O)Nc2ccc(Cl)cc2)c1 | 11.9
CCOC(=O)N1CCC(=NNC(=O)Cn2ccc(C(F)(F)F)n2)CC1 | 2.06
N=c1c2c3c(sc2nc2n1CCC2)CCCC3 | -7.57
CCO[C@@H]1OC(C(=O)N2CCN(C)CC2)=C[C@H](c2ccc(C(F)(F)F)cc2)[C@H]1CCCO | 3.21
O=C(NCC1CCCN(Cc2ccc3nonc3c2)C1)c1cccc(C(F)(F)F)c1 (stereo not shown) | -22.3
O=P(Nc1ccccc1)(Nc1ccccc1)Oc1cccc(Cl)c1 | -11.3
COC(=O)c1ccc(Nc2ncnc3c2cnn3-c2cccc(C)c2)cc1 | 5.6
NS(=O)(=O)c1ccc(NC(=O)NC2CC(=O)N(c3ccc4c(c3)OCCO4)C2)cc1 (stereo not shown) | 8.01

Structure (SMILES) | hERG current change (%, negative = inhibition) at 1uM [%]
CCOC(CC(=O)NNC(=O)c1c(-c2c(Cl)cccc2Cl)noc1C)OCC | 9.76
COc1ccc(S(=O)(=O)N2c3ccc(F)cc3CCC2C)cc1 (stereo not shown) | 3.58
COc1ccccc1N(CC(=O)Nc1cc(C)on1)S(=O)(=O)c1ccc(Cl)cc1 | 6.52
COc1ccccc1CNC(=O)CNC(=O)c1sc2ccccc2c1Cl | 16.2
O=C(NCCCn1ccnc1)C(Cc1ccc([N+](=O)[O-])cc1)N1C(=O)c2ccccc2C1=O (stereo not shown) | -39.2
CN1CCN(S(=O)(=O)c2cccc(C(=O)NCc3ccccc3Cl)c2)CC1 | 3.02
CCC(C)Nc1nnnc2c1sc1nc3c(cc12)COC(C)(C)C3 (stereo not shown) | -1.38
COCCCNc1ccnc2c(Cl)cccc12 | -6.82
CCC(C)Sc1nc2c(c(=O)[nH]c(=O)n2C)n1C (stereo not shown) | 9.64
Cc1scc(C(=O)N/N=C/c2ccc(OC(C)C)cc2)c1C | 6.61
CC(=O)Nc1cccc(/C(C)=N/NS(=O)(=O)c2ccccc2)c1 | 11.5
CC(C)(C)CN1CCNC(=O)C1CC(=O)NCc1cccc(-n2cccn2)c1 (stereo not shown) | 12.2
COc1ccc(C(=O)Sc2ccc(C)cc2)cc1OC | 15.4
CCOc1ccc(NC(=O)CN(C)C(=O)c2ccc(N3CCCCCC3)c([N+](=O)[O-])c2)cc1OCC | 17.6
COc1cccc(C(=O)Oc2ccc(/C=N/NC(=O)c3ccncc3)cc2OC)c1 | 6.21
COc1ccc(OCC(O)CN2CCN(CC(O)COc3ccc(OC)cc3)CC2)cc1 (stereo not shown) | 3.29
Cc1cc(C)n(C(=O)CNC(=O)C2COc3ccccc3O2)n1 (stereo not shown) | 15.9
Cc1ccc(C(=O)NC(=S)Nc2cccc(NC(=O)c3ccccc3)c2)cc1[N+](=O)[O-] | 1.28
Cc1ccc(S(=O)(=O)N2CCC(C(=O)NCC(C)(C)N3CCOCC3)CC2)c(C)c1 | -9.3
Cc1ccc(N2C(=O)NC(=O)/C(=C\c3ccsc3)C2=O)cc1C | 12.8
CCOC(=O)c1cccc([P+](=O)O)c1 | 4.29
COc1ccc(-c2csc3ncnc(Oc4cccc5ccc(C)nc45)c23)cc1 | 8.28
